Measured values: the supplement of paper PMC3334620
Over roughly 33,000 sequences, “E-score (-0.5 to 0.5)” has its median near -0.012; the highest 2% begin near 0.29. Some of the results follow.

Biological target: T1, Ybr033w (UniProt P38073)
T1 sequence: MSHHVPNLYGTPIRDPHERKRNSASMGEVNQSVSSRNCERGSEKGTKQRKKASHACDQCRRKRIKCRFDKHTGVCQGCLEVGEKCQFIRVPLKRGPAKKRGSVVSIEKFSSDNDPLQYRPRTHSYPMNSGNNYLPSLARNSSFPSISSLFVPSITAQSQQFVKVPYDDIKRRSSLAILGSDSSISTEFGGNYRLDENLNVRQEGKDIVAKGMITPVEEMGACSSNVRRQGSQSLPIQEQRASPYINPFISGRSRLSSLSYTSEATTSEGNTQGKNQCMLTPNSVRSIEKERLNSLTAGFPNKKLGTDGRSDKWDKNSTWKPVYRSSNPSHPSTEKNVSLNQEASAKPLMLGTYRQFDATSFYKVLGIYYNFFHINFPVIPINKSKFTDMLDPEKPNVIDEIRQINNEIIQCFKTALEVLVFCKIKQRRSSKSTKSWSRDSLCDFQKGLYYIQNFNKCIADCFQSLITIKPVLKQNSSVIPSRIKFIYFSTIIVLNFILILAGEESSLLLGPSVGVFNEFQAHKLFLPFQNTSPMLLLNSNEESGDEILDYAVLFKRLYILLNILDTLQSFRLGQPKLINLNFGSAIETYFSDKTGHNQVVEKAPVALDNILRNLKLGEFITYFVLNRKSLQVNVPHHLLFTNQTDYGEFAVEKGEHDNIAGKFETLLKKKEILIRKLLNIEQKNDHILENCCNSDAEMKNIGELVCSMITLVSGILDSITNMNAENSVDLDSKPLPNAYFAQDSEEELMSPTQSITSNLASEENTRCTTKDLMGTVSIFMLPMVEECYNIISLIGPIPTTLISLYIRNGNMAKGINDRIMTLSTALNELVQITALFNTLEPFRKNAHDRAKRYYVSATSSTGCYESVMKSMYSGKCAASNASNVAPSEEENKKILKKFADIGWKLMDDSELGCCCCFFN
Assay: PBM E-score (8-mer binding enrichment) (E-score (-0.5 to 0.5)); higher = stronger / more preferred TF binding; most listed sequences are background and not binding sites
Conditions: protein concentration: 200 nM; construct: GST-full length
Procedure, shortened: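 Masliner-normalised scans of fluorescent anti-GST signal were the basis for scoring. That signal came from GST-tagged yeast transcription factors applied at about 100-200 nM to double-stranded universal all-10-mer Agilent arrays on fresh or once-stripped slides. Each ungapped eight-base word, pooled with its reverse complement, received an E-score from the Universal PBM Analysis Suite.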

Sequence	PBM E-score
GGTGACAC	-0.0557
CGGGCCCC	-0.3
CCGAGGGA	-0.19
GGGACTCA	-0.324
TCGCACGA	0.0241
ATTTCCTC	0.176
CATAGCGG	-0.175
CGCTCTGC	-0.0367
AACTCGTA	0.197
AAGTTTGC	0.179
CGAGAAAG	0.102
CGAGCAGA	-0.248
AACGCACA	0.0962
GCCGCGGC	-0.0537
ATCATGGA	-0.0246
AATGGAGC	0.00223
GGTCCGAC	-0.0839
GGGTTAAA	-0.0195
CTTCTGTA	0.121
CAGTTTCG	0.00585
GCGACCGA	0.0421
AACTTCCC	0.00652
ATCGATCC	-0.0468
CATGCGCG	-0.14
ATGCTTGG	-0.0632

Sequence	PBM E-score
CTACGAGA	0.0385
AGAAGAGA	0.0852
ATTTTTCA	0.212
AAGAAGTC	-0.061
CCTCCCCG	-0.171
AGGAATTA	0.223
CGATCAAA	0.12
TAACCGCA	0.144
ACCATGAC	-0.0754
AAGTCTAG	-0.142
ATTTGACC	0.0692
ACACAGTA	0.104
AAGACAAC	0.144
GCACCTGA	0.0618
GCAAGGAC	-0.155
GCGGAAAA	0.396
CTGATATC	0.0398
AATCTAAA	0.161
AGATGAGA	-0.0673
ACCCTGAT	-0.109
ACAGAACT	0.127
AACGATGG	-0.0425
CAGTAGTC	-0.192
GTCGAACA	0.178
ACTTTGAA	0.0876

Sequence	PBM E-score
CACCGCTC	-0.162
ATAAGGGC	-0.114
ATCACCAC	0.12
AGGCAAAC	0.0331
ACTTAGCG	0.123
GTGCACGA	-0.151
CCTTCTCG	-0.244
GGAGTGAC	0.0518
CAGAGAGG	-0.368
ATGATATG	0.208
CATCCTTA	-0.0271
AGAAGGGG	-0.339
CCGCCTCA	-0.232
CCTGCGCG	-0.0311
CTCTTGGA	0.0916
CCAGGGAG	-0.21
ATTGACTA	0.0245
GGCCGTCA	-0.0923
GAAATCTC	-0.0338
CCACCATA	-0.0728
ACGCTCTG	-0.151
ATTTGATG	0.155
GTCTCCCA	-0.271
CGAAGATA	0.133
ACGTTAAC	0.0452

Sequence	PBM E-score
ACATTCAC	0.191
CTTCGTGA	-0.0962
ATGGGTGC	-0.139
AGGAGTCC	-0.241
AGGATCTC	-0.0981
AAACACTC	0.2
AGCACACA	-0.0313
CAACCGAC	0.107
CTGCACAA	0.0156
GACTGTTA	0.0926
TCTGCACA	-0.0174
AAGCAGGC	-0.157
CTGTTCCA	0.0353
TCGGCACA	-0.0693
GACGGCCC	-0.336
ACCCGGCT	-0.174
ATCATCCG	0.155
CCGAGTTA	-0.0736
AAGGGTAA	0.0407
CCGAACGC	-0.0124
ACACGAGG	-0.0693
CCAGAGGA	0.00251
AAATCAGG	0.0403
GATGGTCA	0.00756
TGCAAGAA	0.148

Sequence	PBM E-score
CCTCCGAG	-0.0756
GGATCGGA	-0.0621
GAATGGAA	0.0458
CTGAACAA	0.119
CTTAGATC	0.0104
CGAAATCG	-0.0537
AGAATTAT	0.201
ACAGCTGA	-0.0675
ACGTCGGA	-0.0678
CGCTCCCG	-0.243
CTGTGCCA	-0.127
CGCGCCGC	-0.144
CATGGACG	-0.0125
ACCAACCC	-0.158
AGTCGGGC	-0.14
ACTGCTCC	-0.113
GGAGCTGA	-0.16
CTTAAAAA	0.138
AGGTTCAG	0.145
CTTCCTCC	-0.13
AACGCGTG	0.0968
CTAAGCTA	0.121
AAGTCACC	-0.143
CGCGCGTC	0.0511
CGCAGCGA	0.0573

Sequence	PBM E-score
ATATGAGG	-0.0116
ATTGTCGC	-0.0319
GAAACGGA	0.187
AAGCAGTG	-0.00323
GGCCACAA	-0.037
CGAAGCCC	-0.239
CGCAGGCC	-0.145
GGGTCCCA	-0.244
CCGGCACG	-0.138
AAAGCTAG	0.103
CTCGAGGC	-0.2
CGGCTAAG	-0.233
CCTCTATA	0.0768
ACGAAAAA	0.107
CCCCGCAG	-0.184
ACGGCTAG	-0.105
AACCCATT	0.0701
CCTGATGC	-0.0279
GGTGACTA	0.0708
ACTGTATG	0.12
CGGCCAGA	0.0728
CGTGTAGA	0.121
GGGATCCA	-0.162
CACGTCAC	0.0456
ATATAACG	0.264

Sequence	PBM E-score
CGTACGGC	-0.22
TGCGAGCA	0.0697
CAATATAA	0.284
ATACCCAG	-0.195
ATTGAACA	0.127
CCCGAGAA	0.166
AAGAGTCG	0.0231
AGGTGACG	-0.165
AAACTAGA	0.0392
CTCTACTC	-0.139
AATTCCCA	0.171
GTTAGAGA	-0.076
AGAACTTA	0.246
ATAGGTAC	0.158
CTTTCGAA	-0.0701
AGACCATG	-0.17
ACCTAGGG	-0.138
CGTCAGCC	-0.0427
ATAATACA	0.305
CGAACAAC	0.077
ATAGTCCG	0.0667
GATGGGCC	-0.327
